Article PMC9911399, “Two distinct binding modes provide the RNA-binding protein RbFox with extraordinary sequence specificity”
Changes are numbered by the printed parent chain; changes in the protein carry UniProt numbers. The list shows a part of the results.

T1: RBFOX1 RRM RbFoxmut (Fox-RRM*) (Homo sapiens, UniProt Q9NWB1 109-208, R118D;E147R;N151S;E152T)
T1 sequence: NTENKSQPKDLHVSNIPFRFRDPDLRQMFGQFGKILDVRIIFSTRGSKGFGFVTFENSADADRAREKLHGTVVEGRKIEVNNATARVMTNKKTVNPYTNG

B1: AUUGAGU (DNA:RNA)
RNA: GGGAGACCGGAAUUCAGAUUGUCCAUUGAGUUUAAAUCCCGUCGUAGCCACCA
DNA 1: CAATCTGAATTCCGGTCTCCC
DNA 2: TGGTGGCTACGACGGGATT
B2: CGAACUA (DNA:RNA)
RNA: GGGAGACCGGAAUUCAGAUUGUCCCGAACUAUUAAAUCCCGUCGUAGCCACCA
DNA 1: CAATCTGAATTCCGGTCTCCC
DNA 2: TGGTGGCTACGACGGGATT
B3: UUCUGGU (DNA:RNA)
RNA: B1 RNA with A25U, U27C, G28U, A29G
DNA 1: CAATCTGAATTCCGGTCTCCC
DNA 2: TGGTGGCTACGACGGGATT
B4: UAUUAAC (DNA:RNA)
RNA: B1 RNA with A25U, U26A, G28U, G30A, U31C
DNA 1: CAATCTGAATTCCGGTCTCCC
DNA 2: TGGTGGCTACGACGGGATT
B5: AAUGAAU (DNA:RNA)
RNA: B1 RNA with U26A, G30A
DNA 1: CAATCTGAATTCCGGTCTCCC
DNA 2: TGGTGGCTACGACGGGATT
B6: UACCAAG (DNA:RNA)
RNA: B1 RNA with A25U, U26A, U27C, G28C, G30A, U31G
DNA 1: CAATCTGAATTCCGGTCTCCC
DNA 2: TGGTGGCTACGACGGGATT
B7: UAACCAC (DNA:RNA)
RNA: B2 RNA with C25U, G26A, A28C, U30A, A31C
DNA 1: CAATCTGAATTCCGGTCTCCC
DNA 2: TGGTGGCTACGACGGGATT
B8: CUCAUGU (DNA:RNA)
RNA: B1 RNA with A25C, U27C, G28A, A29U
DNA 1: CAATCTGAATTCCGGTCTCCC
DNA 2: TGGTGGCTACGACGGGATT
B9: AGCGCGA (DNA:RNA)
RNA: B1 RNA with U26G, U27C, A29C, U31A
DNA 1: CAATCTGAATTCCGGTCTCCC
DNA 2: TGGTGGCTACGACGGGATT
B10: AGGAGCC (DNA:RNA)
RNA: B2 RNA with C25A, A27G, C29G, U30C, A31C
DNA 1: CAATCTGAATTCCGGTCTCCC
DNA 2: TGGTGGCTACGACGGGATT
B11: CUUUUCC (DNA:RNA)
RNA: B1 RNA with A25C, G28U, A29U, G30C, U31C
DNA 1: CAATCTGAATTCCGGTCTCCC
DNA 2: TGGTGGCTACGACGGGATT
B12: UCCUCCU (DNA:RNA)
RNA: B1 RNA with A25U, U26C, U27C, G28U, A29C, G30C
DNA 1: CAATCTGAATTCCGGTCTCCC
DNA 2: TGGTGGCTACGACGGGATT
B13: AGAACAC (DNA:RNA)
RNA: B2 RNA with C25A, U30A, A31C
DNA 1: CAATCTGAATTCCGGTCTCCC
DNA 2: TGGTGGCTACGACGGGATT
B14: UGGCCUC (DNA:RNA)
RNA: B2 RNA with C25U, A27G, A28C, A31C
DNA 1: CAATCTGAATTCCGGTCTCCC
DNA 2: TGGTGGCTACGACGGGATT
B15: AGCAGUG (DNA:RNA)
RNA: B2 RNA with C25A, A27C, C29G, A31G
DNA 1: CAATCTGAATTCCGGTCTCCC
DNA 2: TGGTGGCTACGACGGGATT
B16: GGGGAAU (DNA:RNA)
RNA: B1 RNA with A25G, U26G, U27G, G30A
DNA 1: CAATCTGAATTCCGGTCTCCC
DNA 2: TGGTGGCTACGACGGGATT
B17: GUAGCGU (DNA:RNA)
RNA: B1 RNA with A25G, U27A, A29C
DNA 1: CAATCTGAATTCCGGTCTCCC
DNA 2: TGGTGGCTACGACGGGATT
B18: AAGGCUU (DNA:RNA)
RNA: B1 RNA with U26A, U27G, A29C, G30U
DNA 1: CAATCTGAATTCCGGTCTCCC
DNA 2: TGGTGGCTACGACGGGATT
B19: UGGACCC (DNA:RNA)
RNA: B2 RNA with C25U, A27G, U30C, A31C
DNA 1: CAATCTGAATTCCGGTCTCCC
DNA 2: TGGTGGCTACGACGGGATT
B20: AUGUGUG (DNA:RNA)
RNA: B1 RNA with U27G, G28U, A29G, G30U, U31G
DNA 1: CAATCTGAATTCCGGTCTCCC
DNA 2: TGGTGGCTACGACGGGATT
B21: UUUAAUU (DNA:RNA)
RNA: B1 RNA with A25U, G28A, G30U
DNA 1: CAATCTGAATTCCGGTCTCCC
DNA 2: TGGTGGCTACGACGGGATT
B22: AAUCGCA (DNA:RNA)
RNA: B1 RNA with U26A, G28C, A29G, G30C, U31A
DNA 1: CAATCTGAATTCCGGTCTCCC
DNA 2: TGGTGGCTACGACGGGATT
B23: GAGUUAC (DNA:RNA)
RNA: GGGAGACCGGAAUUCAGAUUGUCCGAGUUACUUAAAUCCCGUCGUAGCCACCA
DNA 1: CAATCTGAATTCCGGTCTCCC
DNA 2: TGGTGGCTACGACGGGATT
B24: GACGGUU (DNA:RNA)
RNA: B1 RNA with A25G, U26A, U27C, A29G, G30U
DNA 1: CAATCTGAATTCCGGTCTCCC
DNA 2: TGGTGGCTACGACGGGATT
B25: CGAGAAG (DNA:RNA)
RNA: B2 RNA with A28G, C29A, U30A, A31G
DNA 1: CAATCTGAATTCCGGTCTCCC
DNA 2: TGGTGGCTACGACGGGATT
B26: CCUCCAA (DNA:RNA)
RNA: B2 RNA with G26C, A27U, A28C, U30A
DNA 1: CAATCTGAATTCCGGTCTCCC
DNA 2: TGGTGGCTACGACGGGATT
B27: AUAUCCC (DNA:RNA)
RNA: B1 RNA with U27A, G28U, A29C, G30C, U31C
DNA 1: CAATCTGAATTCCGGTCTCCC
DNA 2: TGGTGGCTACGACGGGATT
B28: UUACAAA (DNA:RNA)
RNA: B1 RNA with A25U, U27A, G28C, G30A, U31A
DNA 1: CAATCTGAATTCCGGTCTCCC
DNA 2: TGGTGGCTACGACGGGATT
B29: UCACUAC (DNA:RNA)
RNA: B23 RNA with G25U, A26C, G27A, U28C
DNA 1: CAATCTGAATTCCGGTCTCCC
DNA 2: TGGTGGCTACGACGGGATT
B30: CUAGUGC (DNA:RNA)
RNA: B1 RNA with A25C, U27A, A29U, U31C
DNA 1: CAATCTGAATTCCGGTCTCCC
DNA 2: TGGTGGCTACGACGGGATT
B31: GUAAACG (DNA:RNA)
RNA: B1 RNA with A25G, U27A, G28A, G30C, U31G
DNA 1: CAATCTGAATTCCGGTCTCCC
DNA 2: TGGTGGCTACGACGGGATT

The binders below were run against T1, RBFOX1 RRM RbFoxmut (Fox-RRM*) (assay: EMSA; HiTS-Eq, 1 nM pool, 10 min; buffer printed only for the single-RNA assays: 10 mM Tris pH 7.5, 150 mM NaCl, 3.4 mM EDTA, 0.001% NP-40, 30 C). Settings: tags: His6 N-terminal (pET28a); label: 5' 32P.
Method in brief: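 Relative association constants, normalised to the cognate motif, were derived by comparing read counts of each RNA species with those of the control reaction. The RNA sequenced was the free fraction, separated by 8% native PAGE after a 10 min equilibration in 50 µL of 1 nM 5′-radiolabelled RNA (7 randomized nucleotides) with increasing concentrations of purified wild-type or mutant RbFox RRM.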

| Binder | binding signal |
| --- | --- |
| B1 | 0.166 KA relative to UGCAUGU |
| B2 | 0.104 KA relative to UGCAUGU |
| B3 | 0.0775 KA relative to UGCAUGU |
| B4 | 0.0973 KA relative to UGCAUGU |
| B5 | 0.0909 KA relative to UGCAUGU |
| B6 | 0.0709 KA relative to UGCAUGU |
| B7 | 0.0709 KA relative to UGCAUGU |
| B8 | 0.143 KA relative to UGCAUGU |
| B9 | 0.0743 KA relative to UGCAUGU |
| B10 | 0.156 KA relative to UGCAUGU |
| B11 | 0.0453 KA relative to UGCAUGU |
| B12 | 0.0641 KA relative to UGCAUGU |
| B13 | 0.0588 KA relative to UGCAUGU |
| B14 | 0.106 KA relative to UGCAUGU |
| B15 | 0.126 KA relative to UGCAUGU |
| B16 | 0.0935 KA relative to UGCAUGU |

| Binder | binding signal |
| --- | --- |
| B17 | 0.143 KA relative to UGCAUGU |
| B18 | 0.0703 KA relative to UGCAUGU |
| B19 | 0.0917 KA relative to UGCAUGU |
| B20 | 0.443 KA relative to UGCAUGU |
| B21 | 0.0813 KA relative to UGCAUGU |
| B22 | 0.0804 KA relative to UGCAUGU |
| B23 | 0.0884 KA relative to UGCAUGU |
| B24 | 0.094 KA relative to UGCAUGU |
| B25 | 0.101 KA relative to UGCAUGU |
| B26 | 0.0825 KA relative to UGCAUGU |
| B27 | 0.0954 KA relative to UGCAUGU |
| B28 | 0.0742 KA relative to UGCAUGU |
| B29 | 0.0731 KA relative to UGCAUGU |
| B30 | 0.114 KA relative to UGCAUGU |
| B31 | 0.0957 KA relative to UGCAUGU |
